{"source": "PubChem BioAssay AID488969", "about": "(Vanderbilt High Throughput Screening Facility, 2010)", "note": "The full ranking holds about 110,000 compounds; the median of “z-score” is about -0.1, and the highest 2% start at about 2. The list shows a part of the results. The source made the active and inactive calls.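 The calls were made as follows: active = z-score in the third read window above 3 or below -3; inactive = the rest.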"}
{"molecular_target": "Metabotropic glutamate receptor 8 (Rattus norvegicus) (UniProt P70579)", "sequence (P70579 whole entry, looked up)": "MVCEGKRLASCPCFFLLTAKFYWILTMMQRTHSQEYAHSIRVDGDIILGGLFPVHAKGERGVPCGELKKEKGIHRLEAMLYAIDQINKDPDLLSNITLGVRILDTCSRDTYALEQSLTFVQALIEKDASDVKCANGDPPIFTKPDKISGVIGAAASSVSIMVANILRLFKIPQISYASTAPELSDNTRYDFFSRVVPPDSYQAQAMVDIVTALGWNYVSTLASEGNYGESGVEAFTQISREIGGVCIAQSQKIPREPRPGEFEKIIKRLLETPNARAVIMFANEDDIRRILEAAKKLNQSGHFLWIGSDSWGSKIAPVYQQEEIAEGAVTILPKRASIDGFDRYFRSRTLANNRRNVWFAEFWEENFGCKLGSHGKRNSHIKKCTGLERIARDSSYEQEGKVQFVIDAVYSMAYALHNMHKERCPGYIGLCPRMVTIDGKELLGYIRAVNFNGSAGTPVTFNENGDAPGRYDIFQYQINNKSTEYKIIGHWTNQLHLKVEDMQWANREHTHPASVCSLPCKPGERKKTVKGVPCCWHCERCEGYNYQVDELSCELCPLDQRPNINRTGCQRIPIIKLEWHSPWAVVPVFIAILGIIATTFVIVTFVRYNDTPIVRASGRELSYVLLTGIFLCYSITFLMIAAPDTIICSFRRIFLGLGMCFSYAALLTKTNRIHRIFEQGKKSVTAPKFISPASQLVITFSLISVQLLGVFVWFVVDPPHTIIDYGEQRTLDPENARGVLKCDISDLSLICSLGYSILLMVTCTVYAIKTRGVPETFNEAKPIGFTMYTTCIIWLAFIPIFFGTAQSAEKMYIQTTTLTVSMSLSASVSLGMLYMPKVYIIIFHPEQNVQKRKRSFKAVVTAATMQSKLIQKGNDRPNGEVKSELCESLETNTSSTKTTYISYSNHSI", "experiment": "rat mGluR8 modulators via GIRK flux, primary screen, cell-based, thallium flux, HTS (AID 488969)", "details": "HEK293 rat mGluR8, GIRK (G protein-gated inwardly rectifying potassium channel) thallium flux, FluoZin2; at 10 µM; stronger effect = higher value; submaximal glutamate (EC20) added with thallium"}
{"smiles": "COc1cc(/C=C(/C#N)c2ccccc2)ccc1Oc1ccc([N+](=O)[O-])cn1", "z-score": -0.141}
{"smiles": "Cc1ccc2c(CC(=O)OCc3nc(N)nc(Nc4ccccc4C)n3)coc2c1", "z-score": 0.33}
{"smiles": "CCOc1ccc(NS(=O)(=O)c2cc(NC(=O)CCS(=O)(=O)c3ccc(C)cc3)ccc2OC)cc1", "z-score": -0.103}
{"smiles": "COc1ccc(NC(=O)CC2C(=O)N(c3ccc(Cl)cc3)C(=S)N2CCc2ccncc2)cc1", "note": "(centres undefined)", "z-score": -0.182}
{"smiles": "Cc1ccc(NC(=O)c2cccc(OCc3c(C)noc3C)c2)c(C)c1", "z-score": -0.371}
{"smiles": "C=CCc1cccc(/C=N/c2ncn[nH]2)c1O", "z-score": -1.01}
{"smiles": "Cc1ccc(N(CC(=O)NCc2cccnc2)S(C)(=O)=O)cc1C", "z-score": 0.196}
{"smiles": "Cc1ccc(S(=O)(=O)N2CCCCC2)cc1NC(=O)COC(=O)Cc1c(F)cccc1Cl", "z-score": -2.09}
{"smiles": "Cc1ccc(C(O)(C(=O)NNS(=O)(=O)c2ccc(C)cc2)c2ccc(C)cc2)cc1", "z-score": 0.0411}
{"smiles": "C=CCn1c(=O)c(C(=O)NCCNCC)c(O)c2ccccc21", "z-score": 0.226}
{"smiles": "COCCNC(=O)CSc1nc2ccccc2c(=O)n1-c1cccc(OC)c1", "z-score": 1.26}
{"smiles": "COc1ccc2[nH]c(=O)c(NC(N)=S)nc2c1", "z-score": 0.0038}
{"smiles": "Cc1nnc(NC(=O)COc2ccc3c(C)cc(=O)oc3c2)s1", "z-score": -0.0105}
{"smiles": "Cc1cc(C)c2nc(/N=C(\\N)NC(=O)Nc3ccccc3)nc(C)c2c1", "z-score": -0.308}
{"smiles": "CC1CCN(c2cc(C#N)c(C#N)cc2[N+](=O)[O-])CC1", "z-score": -0.204}
{"smiles": "C=CCn1c(SCC(=O)c2cc(C)n(CCOC)c2C)nc2sc(C)c(C)c2c1=O", "z-score": -0.255}
{"smiles": "O=[N+]([O-])c1ccc2nc(SCc3cn4cc(Cl)ccc4n3)[nH]c2c1", "z-score": -0.392}
{"smiles": "Cc1ccsc1/C=N/Nc1nc2ccccc2[nH]1", "z-score": -1.75}
{"smiles": "O=C(Nc1cccc([N+](=O)[O-])c1)c1ccc(CSc2ccccc2)cc1", "z-score": -0.556}
{"smiles": "Cc1n[nH]c(=S)n1/N=C/c1ccc(-c2ccccc2[N+](=O)[O-])o1", "z-score": -0.049}
{"smiles": "CCC(=O)NS(=O)(=O)c1cccnc1Nc1ccc(Cl)cc1", "z-score": -0.641}
{"smiles": "CSc1nc(Cl)c(Cc2ccc(OC(C)C)cc2)c(N(C)C)n1", "z-score": -0.0715}
{"smiles": "C=CCc1c(O)nc(SCC(=O)c2ccccc2)[nH]c1=O", "z-score": -0.154}
{"smiles": "CCOC(=O)c1ccc(-c2c(C(=O)OCC)oc3cc(O)c(CC)cc3c2=O)o1", "z-score": -0.386}
{"smiles": "Cc1ccccc1C(=O)Nc1ccc2nc3n(c(=O)c2c1)CCC3", "z-score": "active: 3.87"}
{"smiles": "O=C(Nc1ccc(F)c(F)c1)c1ccc(F)c(S(=O)(=O)N2CCOCC2)c1", "z-score": -0.228}
{"smiles": "CCOC(=O)c1oc2ccc(CNC3CCCCC3)c(Cl)c2c1C", "z-score": 1.2}
{"smiles": "Cc1cn(CC2COC(C)(C)O2)c(=O)[nH]c1=O", "note": "(centres undefined)", "z-score": 0.0183}
{"smiles": "CCOC(=O)c1c(CN2CCCCC2)n(C)c2cc(Br)c(O)cc12", "z-score": 0.123}
{"smiles": "CC(C)CCNC(=S)Nc1ccc([N+](=O)[O-])cc1", "z-score": 1.2}
{"smiles": "Cc1cc(C)nc(NS(=O)(=O)c2ccc(NC(=S)NC(=O)C(C)(C)C)cc2)n1", "z-score": -0.391}
{"smiles": "N#Cc1nc(-c2ccccc2Cl)oc1N1CCOCC1", "z-score": -0.747}
{"smiles": "COCCCN1C(=O)c2[nH]nc(-c3cc(C)cc(C)c3O)c2C1c1ccc(O)c(OC)c1", "note": "(centres undefined)", "z-score": -0.788}
{"smiles": "O=C(O)/C(=C/c1ccco1)NC(=O)c1ccccc1", "z-score": 0.0286}
{"smiles": "Cc1cccc(C)c1NC(=O)c1ccc(-n2cncn2)nc1", "z-score": 0.71}
{"smiles": "O=C(CCCc1ccccc1)c1ccc2c(c1)OCCO2", "z-score": 0.668}
{"smiles": "CCOP(=O)(OCC)C(Nc1cccc(C)c1)c1ccc(F)cc1", "note": "(centres undefined)", "z-score": -0.171}
{"smiles": "CSc1nnc(-c2sccc2OCc2ccccc2)n1C", "z-score": -0.529}
{"smiles": "CCOC(=O)c1c(C)[nH]c2cc(Br)c(OC)cc12", "z-score": 0.302}
{"smiles": "O=C(CN1C(=O)C2C3CCC(C3)C2C1=O)OCC(=O)c1cccc([N+](=O)[O-])c1", "note": "(centres undefined)", "z-score": -0.253}
{"smiles": "CCOc1ccc(NC(=O)CN2CCN(CC(=O)Nc3ccc4c(c3)OCO4)CC2)cc1", "z-score": 0.0576}
{"smiles": "COc1ccc2c(c1)NC(=O)CC(c1ccccc1)=N2", "z-score": -0.0551}
{"smiles": "CCC(=O)N(Cc1cc2cc(OC)ccc2[nH]c1=O)c1cccc(C)c1", "z-score": -0.0764}
{"smiles": "CN1CC(=O)N/C1=N\\C(=O)Nc1ccc2c(c1)N(C)C(=O)CS2", "z-score": -0.375}
{"smiles": "COc1ccc(C(=O)NCCn2cc(SCC(=O)NCc3ccco3)c3ccccc32)cc1", "z-score": -0.609}
{"smiles": "CCOC(=O)c1c(-c2ccc(-c3ccccc3)cc2)csc1NC(=O)C1C2CCC(O2)C1C(=O)O", "note": "(centres undefined)", "z-score": -0.798}
{"smiles": "CCN(CC)C(=O)C1CC(=O)OC12CCCCC2", "note": "(centres undefined)", "z-score": -0.477}
{"smiles": "Cn1cnnc1SCC(=O)Nc1ccc2nc(SCc3ccccc3F)sc2c1", "z-score": 0.22}
{"smiles": "CCN(CC)CCCN1C(=O)C(O)=C(C(C)=O)C1c1cccc(OC)c1", "note": "(centres undefined)", "z-score": -0.657}
{"smiles": "COC(=O)c1ccc(C(=O)OC)c(NC(=O)CCC(=O)O)c1", "z-score": -0.414}
{"smiles": "CC(C)(C)c1nn(-c2ccccc2)c2[nH]c(=O)c(CNCc3ccc4c(c3)OCO4)cc12", "z-score": "active: -3.84"}
{"smiles": "CC(C)C(=O)Nc1nc2c(ncn2C2CC(O)C(CO)O2)c(=O)[nH]1", "note": "(centres undefined)", "z-score": -0.334}
{"smiles": "CN(CC(=O)NCc1cccs1)S(=O)(=O)c1cccc2nsnc12", "z-score": -0.328}
{"smiles": "CCC(C)NC(=O)COC(=O)c1ccccc1OCC(=O)Nc1ccc(Br)cc1", "note": "(centres undefined)", "z-score": -0.0999}
{"smiles": "Cc1ccc(NS(=O)(=O)c2cn(C)cn2)cc1", "z-score": 0.665}
{"smiles": "Cc1ccccc1C(=O)Oc1ccccc1C(=O)N1CCOCC1", "z-score": -0.0659}
{"smiles": "COC(=O)C(NC(C)=O)(Nc1nc2c(C)cc(C)cc2s1)C(F)(F)F", "note": "(centres undefined)", "z-score": 1.39}
{"smiles": "Cc1ccc(N2C(=O)CC(Cn3nc(C)cc3C)C2=O)cc1", "note": "(centres undefined)", "z-score": -0.128}
{"smiles": "COC(=O)C1CSC(C(=O)OC)N1C(=O)Nc1c(C)cccc1C", "note": "(centres undefined)", "z-score": 1.02}
{"smiles": "O=C(c1cccnc1)N(Cc1ccccc1)c1ccccc1", "z-score": 0.664}
{"smiles": "O=S(=O)(NCc1ccc(F)cc1)c1ccc2c(c1)OCCO2", "z-score": -0.787}
{"smiles": "COc1cnc(-c2ccccn2)nc1Sc1c(Cl)cccc1Cl", "z-score": -0.214}
{"smiles": "O=C(COC(=O)c1cccnc1SCC(=O)NCc1ccccc1)NCc1ccccc1", "z-score": -0.219}
{"smiles": "CCOc1cc(S(=O)(=O)N(Cc2ccccc2)Cc2ccccc2)c(OCC)cc1-n1cnnn1", "z-score": 0.151}
{"smiles": "CCCCn1c(NC(C)=O)c(C#N)c2nc3ccccc3nc21", "z-score": -0.341}
{"smiles": "Fc1ccccc1CNc1cc(Cl)cc(Cl)c1", "z-score": 0.0979}
{"smiles": "COc1ccc(OCCCC(=O)NCc2ccco2)cc1", "z-score": 0.959}
{"smiles": "O=C(COC(=O)c1ncc(Cl)c(Cl)c1Cl)c1ccc(Cl)s1", "z-score": -0.0905}
{"smiles": "CCC(C(=O)OCC(=O)Nc1cc(Cl)ccc1Cl)c1ccccc1", "note": "(centres undefined)", "z-score": 0.227}
